# Source: PubChem BioAssay AID504332 (National Center for Advancing Translational Sciences (NCATS), 2011)
# Screen size: about 350,000 compounds; about 31,000 (8.9%) were called active. This list was built around the results that the source calls inconclusive (neither active nor inactive); the mix of calls is not that of the screen. Calls come from the whole dose curve; as a rule, active = well fitted inhibition curve with a large enough effect; inconclusive = small, poorly fitted or top-dose-only effect; inactive = no such curve, though single readings can be large or run the other way. A potency beside an inconclusive call is a rough fit, not a confirmed value.
# Biological target: Histone-lysine N-methyltransferase EHMT2 (Homo sapiens) (UniProt Q96KQ7)
# Test: qHTS Assay for Inhibitors of Histone Lysine Methyltransferase G9a; note: nearly all actives have a fitted effect of over 75% in size
# Conditions: G9a H3K9 monomethylation, AlphaScreen, 2 h; activity, negative = inhibition: at 59 µM (top of the series) unless noted
# In short: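 Chemiluminescent proximity detection of H3K9 monomethylation, read after 10 min bead incubation in the dark. Reaction: 20 nM G9a, 500 nM biotin-H3K9 peptide, 20 uM SAM cofactor, 2 h, room temperature, following 15 min enzyme-compound preincubation.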
# % is set by controls: 0 for no effect and ±100 for the full control effect; potency is the fitted concentration of half-maximal effect; tags give direction and shape of the fitted curve.
# UniProt Q96KQ7, sequence (Q96KQ7 whole entry, looked up): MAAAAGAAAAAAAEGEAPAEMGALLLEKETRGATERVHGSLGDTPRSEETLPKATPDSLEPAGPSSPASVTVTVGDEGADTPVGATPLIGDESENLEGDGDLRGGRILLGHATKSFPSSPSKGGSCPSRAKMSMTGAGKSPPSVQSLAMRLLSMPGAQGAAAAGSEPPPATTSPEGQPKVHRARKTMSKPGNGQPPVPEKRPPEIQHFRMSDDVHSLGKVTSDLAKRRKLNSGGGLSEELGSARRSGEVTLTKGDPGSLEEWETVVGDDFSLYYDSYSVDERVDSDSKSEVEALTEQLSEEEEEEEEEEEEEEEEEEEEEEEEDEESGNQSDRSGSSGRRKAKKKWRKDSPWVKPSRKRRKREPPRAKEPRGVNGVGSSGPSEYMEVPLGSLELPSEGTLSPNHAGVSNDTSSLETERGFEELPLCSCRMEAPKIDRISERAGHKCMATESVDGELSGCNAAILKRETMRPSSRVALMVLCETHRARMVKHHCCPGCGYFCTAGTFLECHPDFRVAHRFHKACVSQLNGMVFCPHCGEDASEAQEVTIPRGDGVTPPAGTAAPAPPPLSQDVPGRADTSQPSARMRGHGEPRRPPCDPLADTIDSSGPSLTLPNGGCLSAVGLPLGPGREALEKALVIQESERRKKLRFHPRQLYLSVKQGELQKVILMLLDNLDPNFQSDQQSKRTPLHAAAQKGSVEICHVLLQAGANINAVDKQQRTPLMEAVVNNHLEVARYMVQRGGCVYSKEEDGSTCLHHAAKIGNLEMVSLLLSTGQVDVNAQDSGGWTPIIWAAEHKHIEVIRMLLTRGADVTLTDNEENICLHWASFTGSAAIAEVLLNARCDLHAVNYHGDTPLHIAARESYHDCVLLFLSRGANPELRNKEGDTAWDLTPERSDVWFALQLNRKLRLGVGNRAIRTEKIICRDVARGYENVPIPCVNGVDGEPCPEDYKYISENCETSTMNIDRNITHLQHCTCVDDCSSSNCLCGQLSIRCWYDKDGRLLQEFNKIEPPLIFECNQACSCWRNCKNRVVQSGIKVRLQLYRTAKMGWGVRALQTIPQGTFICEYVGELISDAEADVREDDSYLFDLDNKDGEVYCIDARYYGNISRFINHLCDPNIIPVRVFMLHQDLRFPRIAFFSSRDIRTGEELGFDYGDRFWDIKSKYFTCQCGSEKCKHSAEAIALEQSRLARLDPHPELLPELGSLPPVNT
SMILES,Potency,"activity, negative = inhibition"
COc1ccccc1-c1noc(CCC(=O)Nc2ccc(C)cc2C)n1,"inconclusive: 12.6 µM [inhibitor, partial curve]",
Cn1cccc1C(=O)N1CCC2(CCCN(Cc3ccc(C#N)cc3)C2)CC1,,inactive: -1.16% [at 12.7 µM]
COC(=O)c1ccccc1N(C)S(C)(=O)=O,,inactive: -2.57% [at 12.7 µM]
Cc1cc(=O)[nH]c(SCc2cccc(Br)c2)n1,"inconclusive: 11.2 µM [inhibitor, partial curve, poor fit]",
O=C(Nc1cccc(-c2cn3ccsc3n2)c1)c1ccccc1,"inconclusive: 79.4 µM [inhibitor, single point]",
COc1cccc(C(=O)NCC(=O)N/N=C(C)\C=C\c2ccccc2)c1,"inconclusive: 89.1 µM [inhibitor, partial curve, poor fit]",
O=C(COC(=O)c1ccccc1)Nc1cccc(S(=O)(=O)N2CCCCC2)c1,"inconclusive: 89.1 µM [inhibitor, single point]",
CCOC(=O)c1ccc(S(=O)(=O)n2c(CN3CCCCC3)nc3ccccc32)cc1,active: 50.1 µM,
O=C(Nc1cc2c(cc1C(=O)c1ccccc1Cl)OCCO2)c1ccccc1,inactive,
Cc1ccc2nc(N3C(=O)CNC3=S)sc2c1,"inconclusive: 35.5 µM [inhibitor, partial curve, poor fit]",
CC(=O)N1CSCC1C(=O)NNS(=O)(=O)c1ccccc1 (stereo not drawn),inactive,
CCn1c(C)[n+](CC)c2ccc(C(=O)N(C)c3ccccc3)cc21,active: 35.5 µM,
CC(=O)c1ccc(Nc2cc(C)nc3nc(Cc4ccc(Cl)cc4)nn23)cc1,"inconclusive: 8.91 µM [inhibitor, partial curve, poor fit]",
CN(C(=O)CSc1nnc(-c2c[nH]c3ccccc23)n1C1CC1)C1CCS(=O)(=O)C1 (stereo not drawn),inactive,
Cc1cnc(-c2nnc(N(C)C(=O)C3CCCO3)s2)cn1 (stereo not drawn),inactive,
CCn1nc(C)c(C(=O)Nc2cc(Oc3ccc(Cl)cc3)cc([N+](=O)[O-])c2)c1C,,inconclusive: -63.3% [inhibitor]
O=C(C1CCCN(S(=O)(=O)c2cnc[nH]2)C1)N1CC(=O)N(CCc2ccccc2)C(=O)C1 (stereo not drawn),"inconclusive: 79.4 µM [inhibitor, single point]",
CN1CCN(NC(=O)Nc2ccc(F)cc2)CC1,"inconclusive: 89.1 µM [inhibitor, single point]",
Nc1nc(-c2nc3ccccc3[nH]2)cs1,,inconclusive: -66% [inhibitor]
COCCn1c(=O)c(-c2cn(C)c3ccccc23)nc2cnc(Oc3ccccc3)nc21,,inactive: -2.25% [at 12.7 µM]
CN(C)c1ccc(CNC(=O)c2ccccc2NC(=O)c2nsc3ccccc23)cc1,inactive,
COc1ccc(NC(=O)CN2CCN(S(=O)(=O)c3ccc(C(C)C)cc3)CC2)cc1OC,"inconclusive: 0.891 µM [inhibitor, full curve, poor fit]",
COC(=O)C1=C(NC(=O)C2CCCCC2)CCS1,active: 1.78 µM,

SMILES,Potency,"activity, negative = inhibition"
COc1ccc(CN(CCC#N)CCC2(c3ccccc3)CC(C)N(C)CC2C)cc1OC (stereo not drawn),"inconclusive: 56.2 µM [inhibitor, partial curve, poor fit]",
O=C(CC1Nc2ccccc2NC1=O)Nc1ccccc1NC(=O)CC1Nc2ccccc2NC1=O (stereo not drawn),inactive,
CC(C)CNC(=O)c1ccccc1NC(=O)CN(c1ccccc1)S(=O)(=O)N(C)C,inactive,
COc1cc(-c2nc3ccccn3c2NCC2CCCO2)ccc1O (stereo not drawn),"inconclusive: 79.4 µM [inhibitor, single point]",
O=C1CS(=O)(=O)C2(C(=O)N(Cc3ccc(F)cc3)c3ccccc32)N1c1cccc(C(F)(F)F)c1 (stereo not drawn),"inconclusive: 25.1 µM [inhibitor, single point]",
CCc1ccc(CNc2ccc(O)cc2)cc1,"inconclusive: 3.16 µM [inhibitor, partial curve, poor fit]",
COC(=O)/C=C1\S/C(=N\N=C\CC(=O)OC)NC1=O,"inconclusive: 50.1 µM [inhibitor, single point]",
Cc1cc2c(C)nc(N/N=C/c3ccc(F)cc3)nc2o1,inactive,
COC(=O)C(F)(F)Sc1c(C)[nH]c2ccccc12,"inconclusive: 31.6 µM [inhibitor, single point]",
CCCc1cc(=O)n2[nH]c(NCc3ccc(CC)cc3)nc2n1,"inconclusive: 4.47 µM [inhibitor, partial curve, poor fit]",
CCCn1c(SCC(=O)NC(=O)NCc2ccco2)n[nH]c1=O,"inconclusive: 3.16 µM [inhibitor, partial curve, poor fit]",
S=c1[nH]nc(CSCc2ccc(Cl)cc2Cl)n1-c1ccccc1,"inconclusive: 20 µM [inhibitor, single point]",
Cc1cc(S(=O)(=O)N2CCOCC2)ccc1OCC(=O)Nc1ccc(F)cc1F,inactive,
CCN(CC(=O)Nc1ccc(NC(C)=O)cc1)C(=O)c1cc(S(=O)(=O)N2CCCCCC2)ccc1OC,inactive,
C/C(=N\NC(=O)c1cccc(N/N=C(\C)c2cc(O)ccc2O)c1)c1cc(O)ccc1O,"inconclusive: 5.62 µM [inhibitor, single point]",
COc1ccc(C)cc1NC(=O)c1ccc(NS(=O)(=O)c2cccs2)cc1,"inconclusive: 89.1 µM [inhibitor, single point]",
COC(=O)c1cc(N2C(=O)C3C(C2=O)C2(C)C=CC3(C)O2)ccc1Cl (stereo not drawn),,inconclusive: -114% [inhibitor] [at 12.7 µM]
Cc1cc2cc(CN3C(=O)c4ccccc4C3=O)ccc2[nH]1,"inconclusive: 89.1 µM [inhibitor, single point]",
O=[N+]([O-])c1ccc(Oc2ccc(S(=O)(=O)Nc3ccccc3)cc2)cc1,"inconclusive: 35.5 µM [inhibitor, single point]",
CC(NC(=O)Cc1ccccc1)C(=O)O (stereo not drawn),,inactive: -27.3% [at 0.501 µM]
O=C(CSc1ncc(S(=O)(=O)c2ccc(Cl)cc2)c(=O)[nH]1)Nc1ccc2c(c1)OCCO2,inactive,
CC1(C)CC(N2CCCC2)=CC(=[N+]2CCCCC2)C1,"inconclusive: 79.4 µM [inhibitor, partial curve, poor fit]",
COc1ccc(CCN(CC(=O)NCc2ccc(F)cc2)C(=O)c2snc(C(N)=O)c2N)cc1OC,inactive,

SMILES,Potency,"activity, negative = inhibition"
Cc1ccc(NS(=O)(=O)c2cc(-c3n[nH]c(=O)c4ccccc34)ccc2C)cc1,"inconclusive: 89.1 µM [inhibitor, single point]",
COc1cc2c(cc1OC)CN(C(=O)CSc1nc(C)cc(C)c1C#N)CC2,"inconclusive: 39.8 µM [inhibitor, single point]",
Cc1ccc(Cl)c(OC(=O)C2CSC3(C)CCC(=O)N23)c1 (stereo not drawn),,inactive: 14.6% [at 0.501 µM]
Cc1ccc(C(=O)NNC(=O)COC(=O)COc2ccccc2C#N)cc1,"inconclusive: 1.12 µM [inhibitor, single point]",
CCN(CC)c1ccc(C2C(C(=O)OCCOC)=C(C)NC3=C2C(=O)CC(C)(C)C3)cc1 (stereo not drawn),"inconclusive: 3.16 µM [inhibitor, partial curve, poor fit]",
COc1cccc(-n2c(=O)c3sc4ccccc4c3n(CC(=O)Nc3ccccc3OC)c2=O)c1,"inconclusive: 39.8 µM [inhibitor, single point]",
Cc1ccc(-n2nc(CO)c(C(=O)NCCc3ccccc3)n2)cc1,inactive,
O=c1[nH]c2cc3c(cc2cc1C(c1nnnn1CC1CCCO1)N1CCCCCC1)OCO3 (stereo not drawn),"inconclusive: 20 µM [inhibitor, single point]",
CCOc1ccc(N(C)C(=O)C2CCN(S(=O)(=O)c3ccc4c(c3)CCCN4C(C)=O)CC2)cc1,inactive,
Cc1ccc(C(=O)O)cc1NC(=O)c1ccc2c(c1)C(=O)N(c1ccc([N+](=O)[O-])cc1)C2=O,"inconclusive: 79.4 µM [inhibitor, single point]",
COc1ccccc1NS(=O)(=O)c1cc(NC(=O)CNC(=O)c2ccc(C)s2)ccc1Cl,inactive,
Cc1ccc2cc(CN(CCO)Cc3nnnn3Cc3ccc(F)cc3)c(=O)[nH]c2c1,active: 31.6 µM,
C/C(CC1CC(C)(C)OC1=O)=N\NC(N)=S (stereo not drawn),active: 31.6 µM,
CC(C)(C)c1ccc(O)c(N)c1,"inconclusive: 1.58 µM [inhibitor, single point]",
NC1=NC(=O)/C(=C/c2ccccc2OS(=O)(=O)c2ccccc2)S1,"inconclusive: 39.8 µM [inhibitor, single point]",
O=C1C(=O)N(CCCN2CCOCC2)C(c2ccc(F)cc2)/C1=C(/O)c1ccccc1 (stereo not drawn),"inconclusive: 89.1 µM [inhibitor, single point]",
C=CC[n+]1c(C)csc1Nc1ccc(C(=O)O)cc1,"inconclusive: 35.5 µM [inhibitor, partial curve]",
CCOc1ccc(C(=O)Nc2c(C(=O)N3CCC(N4CCCCC4)CC3)oc3ccccc23)cc1,"inconclusive: 89.1 µM [inhibitor, single point]",
CCCCOc1nnc(-c2ccc(OCC)cc2)c2ccccc12,inactive,
N#Cc1nc(COc2cccc(Cl)c2)oc1N1CCN(c2ccccc2)CC1,"inconclusive: 3.98 µM [inhibitor, single point]",
O=C(COC(=O)CC1CC2CCC1C2)Nc1ccc(Cl)c(S(=O)(=O)N2CCOCC2)c1 (stereo not drawn),,inactive: 5.97% [at 12.7 µM]
O=C(Nc1ccc(F)cc1)c1cccc(N2C(=O)c3ccccc3C2=O)c1,"inconclusive: 79.4 µM [inhibitor, single point]",
